{"source": "paper PMC4336329", "about": "(PLoS ONE, 2015)", "note": "The campaign covered roughly 310,000 compounds. About 2,200 (0.71%) showed an effect of 50% or more. Effects have a minus sign here. The list shows a part of the results."}
{"molecular_target": "human ether-à-go-go-related gene (hERG) potassium channel (human, UniProt Q12809)", "sequence (Q12809 whole entry, looked up)": "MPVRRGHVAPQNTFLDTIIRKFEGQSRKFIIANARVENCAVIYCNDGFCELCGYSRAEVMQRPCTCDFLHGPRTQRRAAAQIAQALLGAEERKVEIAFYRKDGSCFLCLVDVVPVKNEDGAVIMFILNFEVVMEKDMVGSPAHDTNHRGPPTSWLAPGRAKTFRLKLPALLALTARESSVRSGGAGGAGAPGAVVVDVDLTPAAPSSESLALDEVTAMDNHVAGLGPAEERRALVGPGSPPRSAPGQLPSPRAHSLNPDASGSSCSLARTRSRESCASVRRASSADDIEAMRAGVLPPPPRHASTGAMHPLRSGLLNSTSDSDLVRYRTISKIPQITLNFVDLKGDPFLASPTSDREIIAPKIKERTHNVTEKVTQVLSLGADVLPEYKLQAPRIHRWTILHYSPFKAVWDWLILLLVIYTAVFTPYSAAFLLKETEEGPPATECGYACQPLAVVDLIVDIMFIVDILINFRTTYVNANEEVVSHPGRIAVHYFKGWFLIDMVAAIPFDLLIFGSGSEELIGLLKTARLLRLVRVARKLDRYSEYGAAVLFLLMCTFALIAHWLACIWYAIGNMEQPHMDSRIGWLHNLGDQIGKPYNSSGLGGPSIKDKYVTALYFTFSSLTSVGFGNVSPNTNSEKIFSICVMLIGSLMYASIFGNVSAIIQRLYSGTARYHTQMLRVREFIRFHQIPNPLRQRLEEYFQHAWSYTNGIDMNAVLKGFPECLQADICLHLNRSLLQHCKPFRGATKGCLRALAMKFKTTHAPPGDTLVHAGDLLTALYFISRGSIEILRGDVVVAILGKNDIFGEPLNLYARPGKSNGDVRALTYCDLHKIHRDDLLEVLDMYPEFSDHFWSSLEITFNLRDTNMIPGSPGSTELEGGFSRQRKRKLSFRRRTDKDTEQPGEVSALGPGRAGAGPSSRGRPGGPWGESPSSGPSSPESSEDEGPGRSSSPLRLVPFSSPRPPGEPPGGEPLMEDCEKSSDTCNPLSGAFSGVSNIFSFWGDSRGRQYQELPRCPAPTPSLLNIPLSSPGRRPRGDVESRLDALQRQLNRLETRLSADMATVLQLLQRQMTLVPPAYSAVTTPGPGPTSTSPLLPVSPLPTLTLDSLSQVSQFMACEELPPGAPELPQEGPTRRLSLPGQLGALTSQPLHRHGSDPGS", "assay": "primary screen, population patch clamp on CHO cells stably expressing hERG", "units": {"hERG current change (%, negative = inhibition) at 1uM": "%"}}
{"compound": "O=C(Cc1ccsc1)NNC(=O)c1ccccc1O", "hERG current change (%, negative = inhibition) at 1uM": 6.92}
{"compound": "CCn1c(=O)c(C(=O)NC(C)C)c(O)c2ccccc21", "hERG current change (%, negative = inhibition) at 1uM": 17.3}
{"compound": "Cc1ccc(-c2nn(C(C)(C)C)c3ncnc(N)c23)cc1", "hERG current change (%, negative = inhibition) at 1uM": 11.1}
{"compound": "COc1ccc2c(c1)CC(C1(O)C(=O)Nc3ccccc31)C2=O", "note": "(stereo not drawn)", "hERG current change (%, negative = inhibition) at 1uM": -15.1}
{"compound": "CCOc1ccccc1NC(=O)C1CC2CCCC(C1)C2=O", "note": "(stereo not drawn)", "hERG current change (%, negative = inhibition) at 1uM": 6.33}
{"compound": "Cc1ccc(S(=O)(=O)N(C)c2ccc(OCC(=O)Nc3ccc(C(=O)N(C)C)cc3)cc2)cc1C", "hERG current change (%, negative = inhibition) at 1uM": 12.2}
{"compound": "CN(C)CCCN(Cc1ccccc1)C(=S)NCc1ccccc1", "hERG current change (%, negative = inhibition) at 1uM": 10.2}
{"compound": "Cc1cc(C)c2nc(C)cc(Nc3ccc(C(=O)N(C)C)cc3)c2c1", "hERG current change (%, negative = inhibition) at 1uM": 4.59}
{"compound": "Cc1[nH]c(-c2ccccn2)nc(=S)c1Cl", "hERG current change (%, negative = inhibition) at 1uM": 8.75}
{"compound": "CC(C)CC(NC(=O)OC(C)(C)C)c1cn([C@@H](CCC(=O)OC(C)(C)C)C(=O)N2CCN(C(=O)OC(C)(C)C)CC2)nn1", "note": "(stereo partly drawn)", "hERG current change (%, negative = inhibition) at 1uM": 11.7}
{"compound": "CCn1c(=O)n(CC)c2cc([N+](=O)[O-])ccc21", "hERG current change (%, negative = inhibition) at 1uM": 17.4}
{"compound": "O=C(COC(=O)C1CC1)Nc1c(Cl)cccc1C(F)(F)F", "hERG current change (%, negative = inhibition) at 1uM": 13.9}
{"compound": "Cc1cc(NC(=O)COC(=O)COc2ccc3c(c2)CCC3)no1", "hERG current change (%, negative = inhibition) at 1uM": 18.4}
{"compound": "CN(C(=O)C1CCCO1)c1nnc(-c2cnccn2)s1", "note": "(stereo not drawn)", "hERG current change (%, negative = inhibition) at 1uM": 3.87}
{"compound": "Cc1ccc2cc(C)c(SCC(=O)Nc3cc(C)on3)nc2c1", "hERG current change (%, negative = inhibition) at 1uM": 16.6}
{"compound": "Cc1cc(C)nc(NC2=NCCS2)n1", "hERG current change (%, negative = inhibition) at 1uM": 17.9}
{"compound": "C=CCSc1nc2c(c(=O)n(C)c(=O)n2C)n1CC", "hERG current change (%, negative = inhibition) at 1uM": 4.43}
{"compound": "COCCN(Cc1cc2cc3c(cc2nc1Cl)OCO3)C(C)=O", "hERG current change (%, negative = inhibition) at 1uM": -4.45}
{"compound": "O=C(CSc1ccccc1)N1CCc2ccccc21", "hERG current change (%, negative = inhibition) at 1uM": 7.36}
{"compound": "CC1CC(N(C(=O)c2ccc(Cl)cc2)c2ccccc2)c2ccccc2N1C(=O)c1ccco1", "note": "(stereo not drawn)", "hERG current change (%, negative = inhibition) at 1uM": 16.1}
{"compound": "CCN(C(=O)CSc1nc2ccc(OC)cc2[nH]1)c1c(N)n(Cc2ccccc2)c(=O)[nH]c1=O", "hERG current change (%, negative = inhibition) at 1uM": 19.3}
{"compound": "O=C(CCC1CC(=O)Nc2ccccc21)NCc1ccc(F)cc1", "note": "(stereo not drawn)", "hERG current change (%, negative = inhibition) at 1uM": -1.91}
{"compound": "Cc1oc(C(C)(C)C)cc1C(=O)NC(Cc1ccccc1)C(=O)O", "note": "(stereo not drawn)", "hERG current change (%, negative = inhibition) at 1uM": 10.4}
{"compound": "COc1ccc(CC(=O)NNS(=O)(=O)c2ccc3ccccc3c2)cc1OC", "hERG current change (%, negative = inhibition) at 1uM": 9.9}
{"compound": "CC12CC3(C)CC(C)(C1)CC(C(N)=O)(C2)C3", "hERG current change (%, negative = inhibition) at 1uM": 12.8}
{"compound": "CCOC(=O)N1CCN(C2CCCN(C(=O)c3cccc(Cl)c3)C2)CC1", "note": "(stereo not drawn)", "hERG current change (%, negative = inhibition) at 1uM": 8.44}
{"compound": "O=C(NCc1n[nH]c(=S)n1-c1cccc(Cl)c1)c1ccc(S(=O)(=O)N2CCCCC2)cc1", "hERG current change (%, negative = inhibition) at 1uM": 13.6}
{"compound": "CC(=O)Nc1ccc(N(C(=O)Cc2cccs2)C(C(=O)NC2CCCC2)c2ccncc2)cc1", "note": "(stereo not drawn)", "hERG current change (%, negative = inhibition) at 1uM": 15.4}
{"compound": "O=C(NNC(=O)c1cncc(Br)c1)c1ccncc1", "hERG current change (%, negative = inhibition) at 1uM": 6.83}
{"compound": "Nc1ncnc2c1ncn2CCc1ccccc1", "hERG current change (%, negative = inhibition) at 1uM": 11.8}
{"compound": "O=C(NC1CCCC1)C(c1ccncc1)N(C(=O)c1csnn1)c1cccc(Cl)c1", "note": "(stereo not drawn)", "hERG current change (%, negative = inhibition) at 1uM": 9.65}
{"compound": "CCC1CCCCN1S(=O)(=O)c1c(C)n(C)c(=O)n(C)c1=O", "note": "(stereo not drawn)", "hERG current change (%, negative = inhibition) at 1uM": 10.2}
{"compound": "COc1ccccc1C(=O)N1CCCC1(C#N)c1ccccc1", "note": "(stereo not drawn)", "hERG current change (%, negative = inhibition) at 1uM": -6.18}
{"compound": "COC(=O)C1=C(C)NC(=O)NC1c1ccc(N2CCC(c3ccccc3)=N2)cc1", "note": "(stereo not drawn)", "hERG current change (%, negative = inhibition) at 1uM": 13.6}
{"compound": "Cc1ccc(SCc2cc(=O)[nH]c(/N=C(\\N)Nc3ccc(C)c(C)c3)n2)cc1", "hERG current change (%, negative = inhibition) at 1uM": 1.37}
{"compound": "C=CCn1c(SCC(=O)NCC2CCCO2)nc2scc(-c3ccccc3)c2c1=O", "note": "(stereo not drawn)", "hERG current change (%, negative = inhibition) at 1uM": -0.902}
{"compound": "NS(=O)(=O)c1ccc(CCNC(=O)COC(=O)COc2cccc(C(F)(F)F)c2)cc1", "hERG current change (%, negative = inhibition) at 1uM": -4.29}
{"compound": "Cc1c(C(=O)N2CC(C)OC(C)C2)sc2nc(-c3ccccc3)cn12", "note": "(stereo not drawn)", "hERG current change (%, negative = inhibition) at 1uM": 0.523}
{"compound": "Cc1nc(N2CCN(C(=O)c3ccco3)CC2)[nH]c(=O)c1C", "hERG current change (%, negative = inhibition) at 1uM": 18.5}
{"compound": "COC(=O)C1CCN(C(=O)CN2C(=O)c3ccccc3S2(=O)=O)CC1", "hERG current change (%, negative = inhibition) at 1uM": 20.5}
{"compound": "NNC(=O)c1nc(-c2ccccc2)n2c1CCCCC2", "hERG current change (%, negative = inhibition) at 1uM": 0.842}
{"compound": "O=C(CCCN1C(=O)c2ccccc2C1=O)Nc1nc2ccccc2[nH]1", "hERG current change (%, negative = inhibition) at 1uM": 2.71}
{"compound": "Cc1ccnc(NC(=O)c2cccc(S(=O)(=O)N3CCN(c4ccccc4)CC3)c2)c1", "hERG current change (%, negative = inhibition) at 1uM": 7.92}
{"compound": "COc1ccc(C(=O)CSc2nc(C)cc(C)n2)cc1C", "hERG current change (%, negative = inhibition) at 1uM": -1.62}
{"compound": "Fc1cc(NCc2ccccc2)nc(NCc2ccccc2)n1", "hERG current change (%, negative = inhibition) at 1uM": 11.2}
{"compound": "CCN(CC)C(=O)N[C@H]1C[C@@H]2c3cccc4[nH]cc(c34)C[C@H]2N(C)C1", "hERG current change (%, negative = inhibition) at 1uM": 5.01}
{"compound": "COC(=O)C(Cc1ccccc1)NC(=O)CCCC(=O)NCc1cccc(OC)c1", "note": "(stereo not drawn)", "hERG current change (%, negative = inhibition) at 1uM": 12.6}
{"compound": "Cc1ccc(NC(=S)N(CCCN2CCOCC2)Cc2cccnc2)cc1C", "hERG current change (%, negative = inhibition) at 1uM": 10.2}
{"compound": "COc1ccc(NS(=O)(=O)c2ccc3oc(SCc4ccc(F)cc4)nc3c2)cc1", "hERG current change (%, negative = inhibition) at 1uM": -0.0014}
{"compound": "COC(=O)CCCC1=CC2=C(c3ccccc3)C(=O)C(C)(OC(=O)C3CCCC3)C(=O)C2=CN1C1CCCCC1", "note": "(stereo not drawn)", "hERG current change (%, negative = inhibition) at 1uM": 4.56}
{"compound": "COc1ccc(CCNc2oc(Cc3ccccc3)nc2C#N)cc1OC", "hERG current change (%, negative = inhibition) at 1uM": -1.05}
{"compound": "Cc1ccc(S(=O)(=O)Nc2cc(Cl)ccc2-n2cncn2)cc1", "hERG current change (%, negative = inhibition) at 1uM": 14.3}
{"compound": "Cc1cccc(-c2onc3ccc(C(=O)/C=C/N(C)C)cc23)c1", "hERG current change (%, negative = inhibition) at 1uM": 5.8}
{"compound": "Nc1[nH]c(N=NC(=O)c2ccccc2O)c2ccccc12", "hERG current change (%, negative = inhibition) at 1uM": -57.5}
{"compound": "Cc1cc(C(=O)NNc2c(Cl)cccc2Cl)no1", "hERG current change (%, negative = inhibition) at 1uM": 8.19}
{"compound": "COc1cc(NC(=O)COc2ccccc2Cl)ccc1NC(=O)c1cccs1", "hERG current change (%, negative = inhibition) at 1uM": -13}
{"compound": "O=C(NC1=NCCS1)c1ccc(Cl)c(S(=O)(=O)N2CCCCCC2)c1", "hERG current change (%, negative = inhibition) at 1uM": 7.71}
